Measured values reported in US20260327262A1, “BICYCLIC PEPTIDE LIGANDS SPECIFIC FOR EPHA2” (BicycleTx Limited, priority 2019, published 2026).

Biological target: human EphA2 (Homo sapiens, UniProt P29317)
Assay: Competition Binding Assay (fluorescence polarisation, competition with fluorescent tracer BCY90)
Experimental: Peptides without a fluorescent tag were tested in competition with a peptide with a fluorescent tag and a known Kd.
Peptides were diluted to an appropriate concentration in assay buffer as described in the direct binding assay with a maximum of 5% DMSO, then serially diluted 1 in 2. […] Measurements were conducted, however the gain was determined prior to the first measurement. Data analysis was in Systat Sigmaplot version 12.0 where the mP values were fit to a user defined cubic equation to generate a Ki value: • f=ymax+(ymin−ymax)/Lig*((Lig*((2*((Klig+Kcomp+Lig+Comp−Prot*c)^2−3*(Kcomp*(Lig−Prot*c)+Klig*(Comp−Prot*c)+Klig*Kcomp))^0.5*COS(ARCCOS((−2*(Klig+Kcomp+Lig+Comp−Prot*c)^3+9*(Klig+Kcomp+Lig+Comp−Prot*c)*(Kcomp*(Lig−Prot*c)+Klig*(Comp−Prot*c)+Klig*Kcomp)−27*(−1*Klig*Kcomp*Prot*c))/(2*((((Klig+Kcomp+Lig+Comp−Prot*c)^2−3*(Kcomp*(Lig−Prot*c)+Klig*(Comp−Prot*c)+Klig*Kcomp))^3)^0.5)))/3))−(Klig+Kcomp+Lig+Comp−Prot*c)))/((3*Klig)+((2*((Klig+Kcomp+Lig+Comp−Prot*c)^2−3*(Kcomp*(Lig−Prot*c)+Klig*(Comp−Prot*c)+Klig*Kcomp))^0.5*COS(ARCCOS((−2*(Klig+Kcomp+Lig+Comp−Prot*c)^3+9*(Klig+Kcomp+Lig+Comp−Prot*c)*(Kcomp*(Lig−Prot*c)+Klig*(Comp−Prot*c)+Klig*Kcomp)−27*(−1*Klig*Kcomp*Prot*c))/(2*((((Klig+Kcomp+Lig+Comp−Prot*c)^2−3*(Kcomp*(Lig−Prot*c)+Klig*(Comp−Prot*c)+Klig*Kcomp))^3)^0.5)))/3))−(Klig+Kcomp+Lig+Comp−Prot*c)))). […]

human EphA2, sequence (P29317 24-976): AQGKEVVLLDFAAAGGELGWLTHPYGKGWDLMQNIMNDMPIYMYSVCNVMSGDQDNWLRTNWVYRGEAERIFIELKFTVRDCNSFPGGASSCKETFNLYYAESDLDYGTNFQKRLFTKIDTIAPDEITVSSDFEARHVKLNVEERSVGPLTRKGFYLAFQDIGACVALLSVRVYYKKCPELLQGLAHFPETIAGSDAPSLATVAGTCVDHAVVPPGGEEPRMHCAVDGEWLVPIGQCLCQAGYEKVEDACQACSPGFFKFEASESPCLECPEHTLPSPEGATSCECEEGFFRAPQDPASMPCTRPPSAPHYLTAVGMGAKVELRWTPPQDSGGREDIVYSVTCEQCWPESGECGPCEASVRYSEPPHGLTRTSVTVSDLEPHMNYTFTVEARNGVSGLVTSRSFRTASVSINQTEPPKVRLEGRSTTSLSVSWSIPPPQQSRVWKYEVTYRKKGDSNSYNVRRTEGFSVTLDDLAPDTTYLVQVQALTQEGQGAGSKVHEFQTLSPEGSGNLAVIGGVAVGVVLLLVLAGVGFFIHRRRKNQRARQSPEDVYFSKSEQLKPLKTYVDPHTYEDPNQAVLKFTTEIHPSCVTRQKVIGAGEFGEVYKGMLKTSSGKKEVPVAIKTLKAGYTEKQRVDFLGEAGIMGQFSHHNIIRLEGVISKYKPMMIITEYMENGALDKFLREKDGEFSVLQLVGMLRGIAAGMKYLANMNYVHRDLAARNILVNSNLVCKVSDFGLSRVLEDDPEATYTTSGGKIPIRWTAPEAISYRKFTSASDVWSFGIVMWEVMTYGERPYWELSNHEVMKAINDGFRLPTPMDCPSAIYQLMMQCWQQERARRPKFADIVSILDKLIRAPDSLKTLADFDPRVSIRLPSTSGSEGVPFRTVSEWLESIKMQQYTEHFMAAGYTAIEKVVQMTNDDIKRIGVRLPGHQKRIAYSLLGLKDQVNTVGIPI

Substance | Ki
A[HArg]DCi[HyP]LVNPLCiiL[His1Me]P[dD]W[HArg]Ciii [BCY13918] | 2.62 nM
A[HArg]DCi[HyP]LVNPLCiiL[His3Me]P[dD]W[HArg]Ciii [BCY13917] | 1.72 nM
